Drawing on article PMC9911399, “Two distinct binding modes provide the RNA-binding protein RbFox with extraordinary sequence specificity”, this text covers binding signal for 20 molecules.

Sequences and labels used below:
T1: RBFOX1 RRM (Homo sapiens, UniProt Q9NWB1 109-208)
T1 sequence: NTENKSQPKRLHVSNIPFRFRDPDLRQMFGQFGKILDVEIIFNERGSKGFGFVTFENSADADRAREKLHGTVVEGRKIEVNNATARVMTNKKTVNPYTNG

B1: CUUAUCG (DNA:RNA)
RNA: GGGAGACCGGAAUUCAGAUUGUCCCUUAUCGUUAAAUCCCGUCGUAGCCACCA
DNA 1: CAATCTGAATTCCGGTCTCCC
DNA 2: TGGTGGCTACGACGGGATT
B2: GGACGAC (DNA:RNA)
RNA: GGGAGACCGGAAUUCAGAUUGUCCGGACGACUUAAAUCCCGUCGUAGCCACCA
DNA 1: CAATCTGAATTCCGGTCTCCC
DNA 2: TGGTGGCTACGACGGGATT
B3: AACCUCA (DNA:RNA)
RNA: B1 RNA with C25A, U26A, U27C, A28C, G31A
DNA 1: CAATCTGAATTCCGGTCTCCC
DNA 2: TGGTGGCTACGACGGGATT
B4: UGAAGUG (DNA:RNA)
RNA: B2 RNA with G25U, C28A, A30U, C31G
DNA 1: CAATCTGAATTCCGGTCTCCC
DNA 2: TGGTGGCTACGACGGGATT
B5: UUACUCU (DNA:RNA)
RNA: B1 RNA with C25U, U27A, A28C, G31U
DNA 1: CAATCTGAATTCCGGTCTCCC
DNA 2: TGGTGGCTACGACGGGATT
B6: AUUCACU (DNA:RNA)
RNA: B1 RNA with C25A, A28C, U29A, G31U
DNA 1: CAATCTGAATTCCGGTCTCCC
DNA 2: TGGTGGCTACGACGGGATT
B7: GCUACGU (DNA:RNA)
RNA: B1 RNA with C25G, U26C, U29C, C30G, G31U
DNA 1: CAATCTGAATTCCGGTCTCCC
DNA 2: TGGTGGCTACGACGGGATT
B8: CAAGAGA (DNA:RNA)
RNA: B1 RNA with U26A, U27A, A28G, U29A, C30G, G31A
DNA 1: CAATCTGAATTCCGGTCTCCC
DNA 2: TGGTGGCTACGACGGGATT
B9: GGAGCCG (DNA:RNA)
RNA: B2 RNA with C28G, G29C, A30C, C31G
DNA 1: CAATCTGAATTCCGGTCTCCC
DNA 2: TGGTGGCTACGACGGGATT
B10: UGAAUCU (DNA:RNA)
RNA: B1 RNA with C25U, U26G, U27A, G31U
DNA 1: CAATCTGAATTCCGGTCTCCC
DNA 2: TGGTGGCTACGACGGGATT
B11: UUCGUAG (DNA:RNA)
RNA: B1 RNA with C25U, U27C, A28G, C30A
DNA 1: CAATCTGAATTCCGGTCTCCC
DNA 2: TGGTGGCTACGACGGGATT
B12: AACGGUG (DNA:RNA)
RNA: B1 RNA with C25A, U26A, U27C, A28G, U29G, C30U
DNA 1: CAATCTGAATTCCGGTCTCCC
DNA 2: TGGTGGCTACGACGGGATT
B13: CAUCGAC (DNA:RNA)
RNA: B2 RNA with G25C, G26A, A27U
DNA 1: CAATCTGAATTCCGGTCTCCC
DNA 2: TGGTGGCTACGACGGGATT
B14: CAGUAUA (DNA:RNA)
RNA: B1 RNA with U26A, U27G, A28U, U29A, C30U, G31A
DNA 1: CAATCTGAATTCCGGTCTCCC
DNA 2: TGGTGGCTACGACGGGATT
B15: CAGGAUU (DNA:RNA)
RNA: B1 RNA with U26A, U27G, A28G, U29A, C30U, G31U
DNA 1: CAATCTGAATTCCGGTCTCCC
DNA 2: TGGTGGCTACGACGGGATT
B16: UUAAGAG (DNA:RNA)
RNA: B1 RNA with C25U, U27A, U29G, C30A
DNA 1: CAATCTGAATTCCGGTCTCCC
DNA 2: TGGTGGCTACGACGGGATT
B17: AAGCUAG (DNA:RNA)
RNA: B1 RNA with C25A, U26A, U27G, A28C, C30A
DNA 1: CAATCTGAATTCCGGTCTCCC
DNA 2: TGGTGGCTACGACGGGATT
B18: AGUACCA (DNA:RNA)
RNA: B1 RNA with C25A, U26G, U29C, G31A
DNA 1: CAATCTGAATTCCGGTCTCCC
DNA 2: TGGTGGCTACGACGGGATT
B19: CGCGACA (DNA:RNA)
RNA: B1 RNA with U26G, U27C, A28G, U29A, G31A
DNA 1: CAATCTGAATTCCGGTCTCCC
DNA 2: TGGTGGCTACGACGGGATT
B20: GUGCGUC (DNA:RNA)
RNA: B2 RNA with G26U, A27G, A30U
DNA 1: CAATCTGAATTCCGGTCTCCC
DNA 2: TGGTGGCTACGACGGGATT

Substitutions are numbered along the chain they refer to; changes in the protein carry UniProt numbers. This is one part of the list.

In this assay the target is T1, RBFOX1 RRM. As to the kind of experiment: EMSA; HiTS-Eq, 1 nM pool, 10 min; buffer printed only for the single-RNA assays: 10 mM Tris pH 7.5, 150 mM NaCl, 3.4 mM EDTA, 0.001% NP-40, 30 C. The settings on record: tags: His6 N-terminal (pET28a); label: 5' 32P. An outline of the steps:
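These values rest on relative association constants, computed from read-count changes of each RNA species versus the control reaction and normalised to the cognate motif. Reads came from free RNA recovered by 8% native PAGE after purified RbFox RRM (wild type or mutant) at increasing concentrations was equilibrated for 10 min in 50 µL with 1 nM of a 5′-radiolabelled pool with 7 randomized nucleotides and DNA-annealed flanks.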
For B1, the binding signal is 0.0057 KA relative to UGCAUGU.

Consider B2, for which the binding signal was 0.0241 KA relative to UGCAUGU.

As for B3, the binding signal was 0.000268 KA relative to UGCAUGU.

B4: the binding signal is 0.0247 KA relative to UGCAUGU.

Turning to B5, the binding signal was 0.00661 KA relative to UGCAUGU.

Take B6: the binding signal was 0.00101 KA relative to UGCAUGU.

Regarding B7, the binding signal is 0.0152 KA relative to UGCAUGU.

For the molecule B8, the binding signal is 0.00424 KA relative to UGCAUGU.

As to B9, the binding signal is 0.0162 KA relative to UGCAUGU.

In the case of B10, the binding signal was 0.014 KA relative to UGCAUGU.

Regarding B11, the binding signal is 0.0136 KA relative to UGCAUGU.

Consider B12, for which the binding signal was 0.0116 KA relative to UGCAUGU.

As for B13, the binding signal was 0.00513 KA relative to UGCAUGU.

Turning to B14, the binding signal was 0.00141 KA relative to UGCAUGU.

B15: the binding signal was 0.0118 KA relative to UGCAUGU.

Turning to B16, the binding signal was 0.0159 KA relative to UGCAUGU.

B17: the binding signal is 0.0116 KA relative to UGCAUGU.

For the molecule B18, the binding signal is 0.00585 KA relative to UGCAUGU.

For B19, the binding signal is 0.00694 KA relative to UGCAUGU.

With B20, the binding signal is 0.0205 KA relative to UGCAUGU.
